Data from the supplement of paper PMC4166925.
± gives the standard deviation of the averaged measurements. Over roughly 33,000 sequences, “E-score (dimensionless, -0.5 to 0.5)” has its median near -0.046; the highest 2% begin near 0.36. The list shows a part of the results.

These sequences were tested on T1, SpTbr T-box DNA-binding domain (GST fusion) (assay: PBM E-score of 8-mer (E-score (dimensionless, -0.5 to 0.5)); Tbr is Tbrain of the sea star Patiria miniata (Pm) or the sea urchin Strongylocentrotus purpuratus (Sp); higher = stronger binding preference; most listed sequences are background and not binding sites). Details: the construct has about 5 more residues each side.
T1 sequence: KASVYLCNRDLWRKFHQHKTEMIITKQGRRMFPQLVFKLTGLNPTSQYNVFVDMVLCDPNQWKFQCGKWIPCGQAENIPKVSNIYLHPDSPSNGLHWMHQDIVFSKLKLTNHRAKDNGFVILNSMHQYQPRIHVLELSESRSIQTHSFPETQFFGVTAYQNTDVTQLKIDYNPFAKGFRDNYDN
Summary of the method: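 Each ungapped 8-mer received an enrichment E-score from the Universal PBM Analysis Suite, averaged over duplicate arrays. The proteins were Tbr T-box DNA-binding domains, covering the whole T-box plus about five flanking residues, fused to GST and expressed in BL21 E. coli at 20 °C before glutathione affinity purification. Universal Agilent oligonucleotide arrays were made double-stranded by primer extension and incubated with 200 nM protein in PBS (pH 7.5). The arrays were then scanned and quantified, and every 8-mer was scored from probe intensities.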
ATCCATTG was tested, and the “PBM E-score of 8-mer” value was -0.222 ± 0.026.
With GGCATGGA the “PBM E-score of 8-mer” value was -0.123 ± 0.088.
In the case of AGCGCCAG, the “PBM E-score of 8-mer” value is reported as 0.157 ± 0.026.
With CTGAATGC the “PBM E-score of 8-mer” value was -0.183 ± 0.015.
In the case of ACTCAGGC, the “PBM E-score of 8-mer” value is reported as -0.284 ± 0.018.
CCTGTCAA was tested, and the “PBM E-score of 8-mer” value was 0.328 ± 0.025.
With AGCACCCT the “PBM E-score of 8-mer” value was 0.202 ± 0.025.
GTTATGTA was tested, and the “PBM E-score of 8-mer” value was 0.0836 ± 0.028.
For AGGAGCTG, the “PBM E-score of 8-mer” value was 0.103 ± 0.044.
With AAGGGCGA the “PBM E-score of 8-mer” value was -0.00873 ± 0.016.
With TCCAGGGA the “PBM E-score of 8-mer” value was -0.1119 ± 0.00043.
CACACTCC was tested, and the “PBM E-score of 8-mer” value was 0.402 ± 0.0059.
In the case of ACAGGGCG, the “PBM E-score of 8-mer” value is reported as 0.127 ± 0.029.
ATCCCGTG was tested, and the “PBM E-score of 8-mer” value was -0.0915 ± 0.02.
AACATATC was tested, and the “PBM E-score of 8-mer” value was 0.0176 ± 0.086.
In the case of CGGGAGAC, the “PBM E-score of 8-mer” value is reported as 0.00517 ± 0.026.
With GCTCGGGA the “PBM E-score of 8-mer” value was -0.254 ± 0.0081.
In the case of ATGTGTGA, the “PBM E-score of 8-mer” value is reported as 0.4838 ± 0.001.
In the case of ATCTTTCC, the “PBM E-score of 8-mer” value is reported as -0.165 ± 0.013.
For GATACGTA, the “PBM E-score of 8-mer” value was -0.0311 ± 0.014.
For AAGTAATC, the “PBM E-score of 8-mer” value was -0.109 ± 0.1.
For CCATGCCA, the “PBM E-score of 8-mer” value was -0.128 ± 0.06.
In the case of AGTGAAAG, the “PBM E-score of 8-mer” value is reported as 0.156 ± 0.0046.
For CAAGGTCA, the “PBM E-score of 8-mer” value was 0.116 ± 0.031.
For ATTCTCGC, the “PBM E-score of 8-mer” value was 0.325 ± 0.019.
With CAGGATAG the “PBM E-score of 8-mer” value was -0.119 ± 0.093.
In the case of AGGTGCCC, the “PBM E-score of 8-mer” value is reported as 0.00863 ± 0.0099.
ATGAACAT was tested, and the “PBM E-score of 8-mer” value was 0.0289 ± 0.022.
In the case of CAAACTAG, the “PBM E-score of 8-mer” value is reported as -0.123 ± 0.087.
In the case of ATCTTGGC, the “PBM E-score of 8-mer” value is reported as -0.191 ± 0.029.
For GAACAGTC, the “PBM E-score of 8-mer” value was -0.0343 ± 0.069.
In the case of AGAAAGAG, the “PBM E-score of 8-mer” value is reported as -0.0877 ± 0.019.
CCCGTTTC was tested, and the “PBM E-score of 8-mer” value was -0.0892 ± 0.0065.
In the case of TACGGTGA, the “PBM E-score of 8-mer” value is reported as 0.0931 ± 0.046.
With GCCAGGGC the “PBM E-score of 8-mer” value was -0.144 ± 0.073.
For CTCTGCCC, the “PBM E-score of 8-mer” value was -0.186 ± 0.043.
With AAGGACTA the “PBM E-score of 8-mer” value was -0.166 ± 0.0059.
In the case of AGCGGGCC, the “PBM E-score of 8-mer” value is reported as -0.229 ± 0.0036.
In the case of CGCCCTCC, the “PBM E-score of 8-mer” value is reported as -0.17 ± 0.027.
CCGAACAA was tested, and the “PBM E-score of 8-mer” value was -0.183 ± 0.053.
In the case of AAGGTTGA, the “PBM E-score of 8-mer” value is reported as 0.00741 ± 0.018.
For CTCAGCAG, the “PBM E-score of 8-mer” value was -0.03005 ± 1.4e-05.
In the case of CGTTCACA, the “PBM E-score of 8-mer” value is reported as 0.418 ± 0.0069.
With CACCAGGA the “PBM E-score of 8-mer” value was 0.114 ± 0.059.
With AGGGGGAA the “PBM E-score of 8-mer” value was -0.16 ± 0.019.
In the case of AATCTAGT, the “PBM E-score of 8-mer” value is reported as -0.111 ± 0.061.
For ACTTCTTC, the “PBM E-score of 8-mer” value was 0.0991 ± 0.03.
In the case of TCAGAAAA, the “PBM E-score of 8-mer” value is reported as -0.122 ± 0.12.
CCCCTCTA was tested, and the “PBM E-score of 8-mer” value was -0.134 ± 0.0071.
For CCTGCTGA, the “PBM E-score of 8-mer” value was -0.181 ± 0.031.
AAGGTCAC was tested, and the “PBM E-score of 8-mer” value was 0.164 ± 0.036.
For AACTACAG, the “PBM E-score of 8-mer” value was 0.0252 ± 0.038.
With GAGCAAGC the “PBM E-score of 8-mer” value was -0.0346 ± 0.062.
With CGTATTAC the “PBM E-score of 8-mer” value was 0.00581 ± 0.029.
With GACCCTAA the “PBM E-score of 8-mer” value was -0.179 ± 0.003.
GAGTTTAA was tested, and the “PBM E-score of 8-mer” value was -0.00764 ± 0.1.
With CGCTTGAC the “PBM E-score of 8-mer” value was 0.136 ± 0.0033.
In the case of ATTCAGGG, the “PBM E-score of 8-mer” value is reported as -0.0548 ± 0.041.
In the case of CGCATTGA, the “PBM E-score of 8-mer” value is reported as 0.0931 ± 0.044.
With CTCTGAAC the “PBM E-score of 8-mer” value was -0.231 ± 0.017.
In the case of CGGATGAC, the “PBM E-score of 8-mer” value is reported as -0.0343 ± 0.14.
For ATCGGACG, the “PBM E-score of 8-mer” value was -0.105 ± 0.0022.
In the case of GGTGAAGA, the “PBM E-score of 8-mer” value is reported as 0.231 ± 0.026.
For ACTAGCGG, the “PBM E-score of 8-mer” value was -0.0663 ± 0.0081.
With CAAGGAAA the “PBM E-score of 8-mer” value was 0.000855 ± 0.069.
With TAGAGTCA the “PBM E-score of 8-mer” value was -0.17 ± 0.0056.
ATGCTCCC was tested, and the “PBM E-score of 8-mer” value was 0.00753 ± 0.028.
In the case of GTTTTCCA, the “PBM E-score of 8-mer” value is reported as -0.179 ± 0.017.
TATGTTAA was tested, and the “PBM E-score of 8-mer” value was 0.0661 ± 0.067.
For GGCCCTGA, the “PBM E-score of 8-mer” value was -0.106 ± 0.074.
In the case of CGCGACTA, the “PBM E-score of 8-mer” value is reported as 0.259 ± 0.023.
AAAAGACT was tested, and the “PBM E-score of 8-mer” value was -0.177 ± 0.041.
For AATGTCAT, the “PBM E-score of 8-mer” value was -0.162 ± 0.031.
For GACGAGAC, the “PBM E-score of 8-mer” value was 0.0153 ± 0.01.
CGCTCTAA was tested, and the “PBM E-score of 8-mer” value was -0.0375 ± 0.00095.
ATACAGCA was tested, and the “PBM E-score of 8-mer” value was -0.117 ± 0.039.
TACTTGGA was tested, and the “PBM E-score of 8-mer” value was -0.311 ± 0.035.
With GTGACGGA the “PBM E-score of 8-mer” value was 0.2267 ± 0.002.
With CAGCCGGG the “PBM E-score of 8-mer” value was -0.0945 ± 0.0037.
With CGCAGGAC the “PBM E-score of 8-mer” value was -0.139 ± 0.0089.
In the case of CATATATG, the “PBM E-score of 8-mer” value is reported as 0.0932 ± 0.0065.
With TAGGGCCA the “PBM E-score of 8-mer” value was -0.169 ± 0.046.
AAAAGTTG was tested, and the “PBM E-score of 8-mer” value was 0.0821 ± 0.016.
For TAGGCTGA, the “PBM E-score of 8-mer” value was 0.0791 ± 0.02.
With CGCCAATC the “PBM E-score of 8-mer” value was 0.146 ± 0.034.
In the case of ACCGTCAG, the “PBM E-score of 8-mer” value is reported as 0.0786 ± 0.027.
